Experimental data from the supplement of paper PMC4604168 (melanoma cell lines).
The other results are listed elsewhere or left out. Single values are uncertain, as repeats are few or missing.

test system: MZ2-MEL; assay: cell count relative to DMSO control; melanoma cells; higher = more viable cells; settings: library dose: standard library concentration; 72 h
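Further: cells treated in 1,536-well plates, then fixed and DAPI-stained, with nuclei counted from automated high-throughput microscope images.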

| SMILES | cell count |
| --- | --- |
| NC(=O)c1ccc(N(C(N)=O)c2c(F)cccc2F)nc1-c1ccc(F)cc1F + O=C1NC(=O)/C(=C/c2ccc(-c3ccc(F)cc3O)o2)S1 [AS252424] (first compound 2 µM, partner dose 5 µM) | 87.8% |
| NC(=O)c1ccc(N(C(N)=O)c2c(F)cccc2F)nc1-c1ccc(F)cc1F + COc1ccc(COc2ccc(Cc3cnc(N)nc3N)cc2OC)cc1 [GW2580] (first compound 2 µM, partner dose 5 µM) | 104% |
| NC(=O)c1ccc(N(C(N)=O)c2c(F)cccc2F)nc1-c1ccc(F)cc1F + O=C(O)C(=O)Nc1sc2c(c1C(=O)O)CCNC2 [TCS401] (first compound 2 µM, partner dose 8.33333 µM) | 133% |
| CC(C)(C)c1cnc(CSc2cnc(NC(=O)C3CCNCC3)s2)o1 + CC(C)CCN1c2nc(Nc3cc(F)c(O)c(F)c3)ncc2N(C)C(=O)C1C [BID1870] (first compound 0.05 µM, partner dose 1 µM) | 82.4% |
| COc1cc2c(Oc3ccc4[nH]c(C)cc4c3F)ncnc2cc1OCCCN1CCCC1 [cediranib] + COc1ccc(-c2ccc3c(N4CCOCC4)nc(N4C[C@@H](C)O[C@@H](C)C4)nc3n2)cc1CO [KU0063794] (first compound 2 µM, partner dose 0.1 µM) | 84.4% |
| CCc1ccc(CCOc2ccc(CC3SC(=O)NC3=O)cc2)nc1 (stereo not given) [pioglitazone] + Cn1cc(/C=C2\C(=O)Nc3cccnc32)c2ccccc21 [GW441756] (first compound 10 µM, partner dose 2 µM) | 81.7% |
| NC(=O)c1ccc(N(C(N)=O)c2c(F)cccc2F)nc1-c1ccc(F)cc1F + O=c1cc(-c2cccc3c2Sc2ccccc2S3)oc(N2CCOCC2)c1 [KU55933] (first compound 2 µM, partner dose 5 µM) | 91.2% |
| CN(NC(=O)CC(=O)NN(C)C(=S)c1ccccc1)C(=S)c1ccccc1 + CCc1ccc(CCOc2ccc(CC3SC(=O)NC3=O)cc2)nc1 [pioglitazone] (first compound 0.03 µM, partner dose 10 µM) | 104% |
| NC(=O)c1ccc(N(C(N)=O)c2c(F)cccc2F)nc1-c1ccc(F)cc1F + c1cc(-c2cnn3cc(-c4ccc(OCCN5CCCCC5)cc4)cnc23)ccn1 [Dorsomorphin] (first compound 2 µM, partner dose 2 µM) | 81.5% |
| Cc1ccc(NC(=O)c2cccc(N(C)C)c2)cc1NC(=O)c1ccc(O)cc1 + COc1ccc(-c2ccc3c(N4CCOCC4)nc(N4C[C@@H](C)O[C@@H](C)C4)nc3n2)cc1CO [KU0063794] (first compound 10 µM, partner dose 0.1 µM) | 86.9% |
| NC(=O)c1ccc(N(C(N)=O)c2c(F)cccc2F)nc1-c1ccc(F)cc1F + CCN(CC)CCCCNc1ncc2cc(-c3cc(OC)cc(OC)c3)c(NC(=O)NC(C)(C)C)nc2n1 [PD173074] (first compound 2 µM, partner dose 0.5 µM) | 133% |
| CCCCCCCCc1ccc(CCC(N)(CO)CO)cc1 [fingolimod] + Oc1nc(-c2ccc(C(F)(F)F)cc2)nc2c1CSCC2 [XAV939] (first compound 10 µM, partner dose 10 µM) | 64.1% |
| NC(=O)c1ccc(N(C(N)=O)c2c(F)cccc2F)nc1-c1ccc(F)cc1F + COc1cc2ncnc(Nc3ccc(Oc4ccccc4)cc3)c2cc1OC [SrcI1] (first compound 2 µM, partner dose 10 µM) | 61.5% |
| CCCCCCCCc1ccc(CCC(N)(CO)CO)cc1 [fingolimod] + Oc1cc(-c2nc(-c3ccccc3)[nH]c2-c2ccncc2)ccc1Cl [L779450] (first compound 10 µM, partner dose 1 µM) | 0.894% |
| NC(=O)c1ccc(N(C(N)=O)c2c(F)cccc2F)nc1-c1ccc(F)cc1F + Oc1cc(-c2nc(-c3ccccc3)[nH]c2-c2ccncc2)ccc1Cl [L779450] (first compound 2 µM, partner dose 1 µM) | 88.4% |
| COc1cc2c(Oc3ccc4[nH]c(C)cc4c3F)ncnc2cc1OCCCN1CCCC1 [cediranib] + COC(=O)c1sccc1S(=O)(=O)Nc1ccc(Nc2ccccc2)cc1OC [GSK0660] (first compound 2 µM, partner dose 5 µM) | 80.7% |
| NC(=O)c1ccc(N(C(N)=O)c2c(F)cccc2F)nc1-c1ccc(F)cc1F + Cc1cc([N+](=O)[O-])ccc1NS(=O)(=O)c1cc(Cl)ccc1Cl [FH535] (first compound 2 µM, partner dose 5 µM) | 70.3% |
| Cc1ccc(NC(=O)c2cccc(N(C)C)c2)cc1NC(=O)c1ccc(O)cc1 + N#Cc1c(O)c2c(-c3ccc(-c4ccccc4O)cc3)csc2[nH]c1=O [A769662] (first compound 10 µM, partner dose 10 µM) | 88.5% |

| SMILES | cell count |
| --- | --- |
| NC(=O)c1ccc(N(C(N)=O)c2c(F)cccc2F)nc1-c1ccc(F)cc1F + COc1cc(N2CCC(N3CCN(C)CC3)CC2)ccc1Nc1ncc(Cl)c(Nc2ccccc2S(=O)(=O)C(C)C)n1 [NVP-TAE684] (first compound 2 µM, partner dose 0.4 µM) | 94.1% |
| CCc1ccc(CCOc2ccc(CC3SC(=O)NC3=O)cc2)nc1 (stereo not given) [pioglitazone] + COc1ccc2c(c1)CCC1C2CCC2(C)C(NCCCCCCN3C(=O)C=CC3=O)CCC12 [U73122] (first compound 10 µM, partner dose 2 µM) | 89.4% |
| NC(=O)c1ccc(N(C(N)=O)c2c(F)cccc2F)nc1-c1ccc(F)cc1F + COc1ccc2c(c1)CCC1C2CCC2(C)C(NCCCCCCN3C(=O)C=CC3=O)CCC12 [U73122] (first compound 2 µM, partner dose 2 µM) | 96.3% |
| NC(=O)c1ccc(N(C(N)=O)c2c(F)cccc2F)nc1-c1ccc(F)cc1F + O=S(=O)(c1ccccc1)N(CC(F)(F)F)c1ccc(C(O)(C(F)(F)F)C(F)(F)F)cc1 [T0901317] (first compound 2 µM, partner dose 7 µM) | 92.6% |
| CCCCCCCCc1ccc(CCC(N)(CO)CO)cc1 [fingolimod] + Cc1cc([N+](=O)[O-])ccc1NS(=O)(=O)c1cc(Cl)ccc1Cl [FH535] (first compound 10 µM, partner dose 5 µM) | 45.4% |
| CCCCCCCCc1ccc(CCC(N)(CO)CO)cc1 [fingolimod] + COc1ccc2c(c1)CCC1C2CCC2(C)C(NCCCCCCN3C(=O)C=CC3=O)CCC12 [U73122] (first compound 10 µM, partner dose 2 µM) | 76.7% |
| NC(=O)c1ccc(N(C(N)=O)c2c(F)cccc2F)nc1-c1ccc(F)cc1F + COC(=O)c1sccc1S(=O)(=O)Nc1ccc(Nc2ccccc2)cc1OC [GSK0660] (first compound 2 µM, partner dose 5 µM) | 72.3% |
| CCCCCCCCc1ccc(CCC(N)(CO)CO)cc1 [fingolimod] + Cc1cc(Nc2cc(N3CCN(C)CC3)nc(/C=C/c3ccccc3)n2)n[nH]1 [ENMD2076] (first compound 10 µM, partner dose 0.2 µM) | 9.61% |
| NC(=O)c1ccc(N(C(N)=O)c2c(F)cccc2F)nc1-c1ccc(F)cc1F + COc1ccc(-c2ccc3c(N4CCOCC4)nc(N4C[C@@H](C)O[C@@H](C)C4)nc3n2)cc1CO [KU0063794] (first compound 2 µM, partner dose 0.1 µM) | 79.6% |
| CCCCCCCCc1ccc(CCC(N)(CO)CO)cc1 [fingolimod] + O=S(=O)(c1ccccc1)N(CC(F)(F)F)c1ccc(C(O)(C(F)(F)F)C(F)(F)F)cc1 [T0901317] (first compound 10 µM, partner dose 7 µM) | 20.7% |
| CCCCCCCCc1ccc(CCC(N)(CO)CO)cc1 [fingolimod] + c1cc(-c2cnn3cc(-c4ccc(OCCN5CCCCC5)cc4)cnc23)ccn1 [Dorsomorphin] (first compound 10 µM, partner dose 2 µM) | 33% |
| CC(C)(C)c1cnc(CSc2cnc(NC(=O)C3CCNCC3)s2)o1 + NCC(=O)Nc1ccc(-n2nc(C(F)(F)F)cc2-c2ccc3c(ccc4ccccc43)c2)cc1 [OSU03012] (first compound 0.05 µM, partner dose 5 µM) | 88.3% |
| NC(=O)c1ccc(N(C(N)=O)c2c(F)cccc2F)nc1-c1ccc(F)cc1F + O=C(Nc1ccccc1)c1cc([N+](=O)[O-])ccc1Cl [GW9662] (first compound 2 µM, partner dose 10 µM) | 77% |
| CCCCCCCCc1ccc(CCC(N)(CO)CO)cc1 [fingolimod] + N#Cc1c(O)c2c(-c3ccc(-c4ccccc4O)cc3)csc2[nH]c1=O [A769662] (first compound 10 µM, partner dose 10 µM) | 1.9% |
| CCCCCCCCc1ccc(CCC(N)(CO)CO)cc1 [fingolimod] + CC(C)CCN1c2nc(Nc3cc(F)c(O)c(F)c3)ncc2N(C)C(=O)C1C [BID1870] (first compound 10 µM, partner dose 1 µM) | 78.3% |
| NC(=O)c1ccc(N(C(N)=O)c2c(F)cccc2F)nc1-c1ccc(F)cc1F + N#Cc1c(O)c2c(-c3ccc(-c4ccccc4O)cc3)csc2[nH]c1=O [A769662] (first compound 2 µM, partner dose 10 µM) | 105% |
| CCCCCCCCc1ccc(CCC(N)(CO)CO)cc1 [fingolimod] + O=C(O)c1ccc(-c2c[nH]c3ncc(-c4ccccc4)cc23)cc1C1CCCC1 [GSK650394] (first compound 10 µM, partner dose 0.8 µM) | 89% |
